# Data published in ChEMBL document CHEMBL5308541, “MAIP: An Open-Source Tool to Enrich High-Throughput Screening Output and Identify Novel, Druglike Molecules with Antimalarial Activity” (ACS Med Chem Lett, 2023).
# The whole screen tested about 4,800 compounds, of which about 410 (8.5%) showed an effect of 50% or more. Some of the results follow.
# Tested on: Plasmodium falciparum
# Test: Confirmatory screen in NF54 pLDH assay, in single point, at 2uM, 72h
# Type: functional, Erythrocyte
# Conditions: timepoint 72 hour
row,SMILES,% Inhibition [%]
1,CC(C)CCOc1ccc2[nH]c(-c3cc(N4CCC[C@@H]4CS(C)(=O)=O)ccn3)cc2c1,98
2,CCCN1CCC(Nc2cc(C)nc3ccccc23)CC1,89
3,OCCN1CCC(NCCc2cc(Cl)cc(Cl)c2)CC1,30
4,CC(C)c1ccc(CN2CCC[C@@](O)(CNCCN3CCNCC3)C2=O)cc1,29
5,Fc1ccc(-n2cc(CNCCC3CCN(c4ccncc4)CC3)cn2)cc1,102
6,Nc1ccc(Nc2ccc(F)cc2)c2ccncc12,70
7,CN(CCCn1ccnc1)c1ccnc2cc(Br)ccc12,98
8,COCCN1CCC[C@@]2(CCN(c3ccnc4cc(Cl)ccc34)C2)C1,101
9,Cc1cc(N2CCC(N(C)Cc3cc(-c4ccccc4)n[nH]3)CC2)nc(N)n1,52
10,Cc1ccc(-c2cc(C(=O)NC3CCN(C4CCN(C)CC4)CC3)n[nH]2)cc1C,102
11,CCN1CCN([C@H]2CCN(c3ccnc4ccncc34)C2)CC1,98
12,CCN(Cc1[nH]c2ccc(Cl)cc2c1C)CC1CCN(C2CCN(C)CC2)CC1,102
13,Brc1ccc2[nH]c3c(c2c1)CCCC3NC1CCc2[nH]cnc2C1 (stereo not given),104
14,Cc1ocnc1CNC[C@H](O)c1ccc(Cl)c(Cl)c1,97
15,C[C@H]1CCCN(CCNC(=O)c2ccc(-c3ccc4c(=O)[nH]ccc4c3)cc2)C1,37
16,Clc1ccc2[nH]c3c(c2c1)CCCC3NC1CCN(C2CCOC2)CC1 (stereo not given),96
17,c1cncc(-c2ccc(CNC3CCN(Cc4cccs4)CC3)cc2)c1,86
18,CCOc1ccc2nc(N3CCCN(Cc4c(C)nn(CC)c4C)CC3)nc(C)c2c1,22
19,COc1ccccc1-c1csc(C2CCN(CC[C@H]3CCCN3C)CC2)n1,19
20,O=C(Nc1cncnc1N1CCCC1)c1cc(F)cc2[nH]cnc12,-8
21,Cn1cc(-c2cncc(C(=O)NC3CCN(c4cccc(F)c4)CC3)c2)cn1,0
22,COCCN1CCC[C@H](CNCc2cnn(-c3ccc4ccccc4c3)c2)C1,13

row,SMILES,% Inhibition [%]
1,OC[C@H](CNCc1cc2ccc(F)cc2[nH]1)c1ccccc1Cl,82
2,Cc1nc(-c2ccccn2)nc(NC2CCN(CC(F)F)CC2)c1C,24
3,CN(C)C1CCN(CCN[C@H]2CCc3ccc(F)cc32)CC1,97
4,O[C@@]1(c2c[nH]nn2)CCN(c2ccnc3cc(Cl)ccc23)C1,98
5,NCCCCc1c(-c2cccnc2)[nH]c2c(Cl)cc(Cl)cc12,75
6,CCOc1cc(C(=O)NC2CCN(CC3CCCC3)CC2)cc(-c2ccccc2)c1OC,99
7,Fc1cccc(Cl)c1CN1CCC(NC[C@H]2CCCOC2)CC1,21
8,Cc1ccc(-c2nnc(Nc3ccccc3)c3ccccc23)cc1CN1C(=O)c2ccccc2C1=O,27
9,COc1cc2nc(NCC3(N4CCN(C)CC4)CCCC3)cc(C)c2cc1OC,103
10,CN1CCC(Oc2ccc(NC(=O)c3cn4ccnc4s3)cn2)CC1,92
11,c1ccc2c(CNCCC3CCN(c4ccncc4)CC3)csc2c1,95
12,CN1CCC(N(Cc2ccccc2)C(=O)c2cc3cnccc3[nH]2)CC1,58
13,CN(C[C@H](O)COc1ccccc1CN1CCC(c2ccncc2)CC1)C1CCCCC1,84
14,Cc1nc2ccc(CNC3CCN(c4ccc(F)c(F)c4)CC3)cc2[nH]1,64
15,COc1ccc(-c2cc(C(=O)Nc3ccc(N4CCN5CCCC5C4)cc3)c3c(C)noc3n2)cc1 (stereo not given),36
16,CCNc1cc(C)nc(NCCNC(=O)Nc2cc(F)cc(F)c2)n1,92
17,CCN(C)CCNc1cc(C)nc(C)n1,23
18,Nc1ccnc(-c2cccc3[nH]ccc23)c1,0
19,O=C(Nc1cnc2c(c1)COCC2)c1cc2c(OC(F)(F)F)cccc2[nH]1,102
20,Cc1cc(O)c(Cl)cc1-c1ccc2nccc(N)c2c1,100
21,Cc1cnccc1NCCNCc1cccc(OCCCCN2CCOCC2)c1,95
22,COc1ccc2cc(-c3cc(N)ccn3)[nH]c2c1,89

row,SMILES,% Inhibition [%]
1,Cc1ccn2cc(-c3ccc(N4CCC(NCc5cccnc5)CC4)cc3)nc2c1,102
2,CCc1oc2ccccc2c1CNC[C@H](O)c1ccc(Cl)cc1,99
3,O=C(NCC1CC1)c1cc2c(OCc3ccc(Cl)cc3)cccc2[nH]1,53
4,CNc1nc(N2CCN(CC(=O)NC3CCCCC3)CC2)nc2ccccc12,26
5,Cc1ccc2nc(CCCNC3CCN(c4cc(C)nc(N)n4)CC3)oc2c1,59
6,Cc1ccc2[nH]cc(-c3cc(N4CCOCC4)nc(N)n3)c2c1,55
7,C[C@@H](CNC1CCN(C2CCN(C)CC2)CC1)c1cccc(Cl)c1,103
8,CCc1cc(Nc2ccc(N3CCOCC3)nc2)nc(-c2ccncc2)n1,42
9,Cc1cccc(N2CCC(NCc3cc(C)cc(CN4CCN(C)CC4)c3C)CC2)c1,84
10,COC(=O)c1cn(CCNc2ccnc3cc(Cl)ccc23)cc2c(O)nnc1-2,103
11,CCOc1ccc2nc(CN(CC)CC3CCN(C4CCN(C)CC4)CC3)ccc2c1,99
12,c1ccc(CN2CCC(CCNC[C@@H]3CCCN4CCCC[C@H]34)CC2)cc1,63
13,COc1ccnc(NCCCc2nc(-c3ccncc3)cs2)n1,64
14,O=C(CCc1nnc(-c2ccc(-c3ccccc3)cc2)o1)NC[C@@H]1CCCN2CCCC[C@H]12,86
15,CN(C)C1(CNc2nc(C(F)(F)F)nc3cc(F)ccc23)CCCCCC1,57
16,NCC1(O)CCN(c2ccnc3cc(F)c(Cl)cc23)CC1,97
17,CCN1CCC[C@H](CNCc2cn(-c3ccccc3)nc2C(C)C)C1,17
18,Cc1cc(NC[C@H]2CN(CC(C)C)CCO2)c2ccccc2n1,28
19,CN(C)CCN1CCC(NC2CCC(O)(c3cccc(Cl)c3)CC2)CC1 (stereo not given),33
20,OC1(c2ccc(Cl)cc2)CCN(C[C@@H]2CCCN3CCCC[C@H]23)CC1,88
21,Cc1ccccc1-c1cccc(N2CCC(NCC3CCNCC3)CC2)c1,100
